# In all, about 33,000 sequences were measured (“E-score (-0.5 to 0.5)”: median about -0.016, highest 2% from about 0.31 on). The list shows a part of the results.
# Biological target: Cst6 (UniProt P40535)
# Test: PBM E-score (8-mer binding enrichment) (E-score (-0.5 to 0.5)); higher = stronger / more preferred TF binding; most listed sequences are background and not binding sites
# Details: protein concentration: 200 nM; construct: GST-DNA-binding domain
# Procedure, shortened: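 GST-tagged yeast TFs (full-length or DNA-binding domain) were made by PURExpress in vitro transcription/translation and applied at about 100-200 nM to universal all-10-mer Agilent arrays. The arrays were made double-stranded by primer extension, on fresh or once-stripped slides. Bound protein was detected with fluorescent anti-GST, and scans were normalised with masliner. Each ungapped eight-base word, pooled with its reverse complement, received an E-score (modified Wilcoxon-Mann-Whitney statistic) from the Universal PBM Analysis Suite.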
row,Sequence,PBM E-score
1,ACATGCTA,-0.174
2,CATGGGAA,-0.0251
3,ATGTACGG,0.0265
4,CTTGTGGA,-0.0842
5,GATGGTAA,-0.0499
6,GACAGAGA,-0.152
7,CGACGTCG,-0.0227
8,GATTATCA,0.109
9,AGTTGGCG,0.00931
10,CGAAGTCG,0.132
11,ACCATAGG,-0.168
12,GAGTTAGA,-0.0254
13,AATAAAAA,0.255
14,ATCGGTGG,-0.00306
15,ATCCGATG,0.154
16,CAGAGCAC,-0.0324
17,GGGGGCAC,-0.302
18,GATCTGGC,0.0213
19,CGCACGCG,-0.109
20,GAATGGGC,-0.14
21,ACTAAAGG,-0.0814
22,ATTCACAA,0.221
23,CCCCTTCC,-0.246
24,GTCCCCTA,-0.288
25,CATACGAA,0.154

row,Sequence,PBM E-score
1,CTTCCCGC,-0.0811
2,AGTGAACT,-0.0632
3,AATAAATC,0.114
4,CCTAATCC,-0.175
5,AAAAGGCG,0.179
6,GATAAGGC,0.0661
7,GAGTTGAA,-0.116
8,CGAAGGCC,-0.268
9,AGAGCGGG,-0.216
10,AGGGCCCA,-0.355
11,ACCCATCA,-0.0348
12,AACTGGCT,-0.205
13,CACCCTAC,-0.124
14,CTGGCGCC,0.0343
15,CGTGATCC,-0.029
16,CTGAGCTC,-0.0539
17,CGGGGAGA,-0.285
18,CCCTAAAG,-0.185
19,GCATATAA,0.166
20,CTCGCTCA,0.0834
21,CTGCCTTA,-0.117
22,ATCGGATA,0.115
23,CACATTGC,-0.0114
24,CTTCATTC,0.0742
25,ATATCTGG,-0.194

row,Sequence,PBM E-score
1,ACTACGAC,-0.05
2,CTCCGCAG,-0.225
3,ATACGTGG,0.176
4,CGTAGAAG,0.105
5,GGTTTGAC,-0.0255
6,TAAATCCA,0.0464
7,GGAAGCAC,-0.0203
8,AGGGGAAT,0.0579
9,CGACTCAC,-0.305
10,CATATCCC,0.0321
11,CTAGAGAA,-0.0852
12,CTTAGAGA,-0.0352
13,CGCAAAAG,0.00977
14,TATTGCAA,0.11
15,CGTACCTA,-0.059
16,CAAAAGAC,0.13
17,ACTATATG,0.0805
18,TTAGTGAA,0.0552
19,AGAATCGG,0.0442
20,CAAGGCCC,-0.245
21,GAGGATGC,-0.0884
22,GATGCCCA,0.0611
23,TACCAGGA,-0.146
24,AACCTCAG,-0.105
25,AAGCAAGG,-0.0871

row,Sequence,PBM E-score
1,ATGTAGCA,-0.124
2,TAAAGTCA,0.0375
3,AGCTCACA,0.0937
4,CACTAGAC,0.0077
5,ACTGCTAA,-0.183
6,ATAGTGCA,-0.018
7,GGATCCTA,-0.199
8,AGCTTTAT,0.0216
9,AAATAGCA,0.0395
10,GACATTGA,0.096
11,CCATCCAG,-0.232
12,CTCGCGGA,-0.13
13,ATTTCCAA,-0.0596
14,AGCCATGC,-0.115
15,AGATGGGG,-0.244
16,AACTTAGA,0.154
17,ACGAGCGT,-0.138
18,CGTCTGGA,-0.23
19,ACCCCTAA,-0.181
20,ACAAAGGT,0.15
21,ACAAACGT,0.132
22,ACACACAA,0.197
23,CGAGCGCC,-0.215
24,CGAGGACC,-0.14
25,AGCTGAGG,-0.147

row,Sequence,PBM E-score
1,CCGGTTCG,-0.248
2,GATGCAGA,0.0354
3,CTAACGAG,-0.0222
4,CCTGAACG,-0.0678
5,CCAACCGA,-0.0928
6,AGGCCCCA,-0.27
7,ACGTAGAA,0.224
8,TGAATCAA,0.15
9,ATCATCTC,0.216
10,GTTCAACA,0.028
11,AAACACCA,0.0796
12,ACGGCCCA,-0.0617
13,AGTTTCCG,0.0164
14,CAGTCTAG,-0.319
15,ATTGGGCA,-0.0812
16,CTAGGTCA,0.109
17,ATCGCTGG,-0.217
18,GGTTCCAC,-0.256
19,CGCCCGGA,-0.101
20,CACTGCAA,0.187
21,CCATAAGG,-0.0877
22,TAAGGTCA,0.0174
23,AATCGGCG,0.113
24,ACGTCGCT,0.0297
25,AGGACTTG,-0.308

row,Sequence,PBM E-score
1,GCGAAGGA,-0.169
2,GTATAGGA,-0.169
3,GCCCCAGC,-0.217
4,AAGTTCCC,-0.229
5,CCCATCAA,0.0258
6,TGCTGCCA,-0.0603
7,CACCTTCC,-0.105
8,ATTCCACA,0.165
9,AAAGTCTA,0.0819
10,GAGAACAA,0.254
11,ACTGACGC,0.243
12,AGCCTGTG,-0.228
13,ATCTCTAC,0.113
14,CACTGCCG,0.135
15,GACTTTAA,-0.101
16,GTCATGCA,0.36
17,CCCCCACG,-0.242
18,ACATCGGA,-0.00933
19,CTTCCTGC,-0.21
20,CAGTGCTA,-0.154
21,AAATTAAG,0.0224
22,CTATAACC,-0.064
23,CCATGCGG,0.049
24,AGTTATTA,0.195
25,AAGTAGCA,0.0243

row,Sequence,PBM E-score
1,CCTGTCAG,-0.195
2,ACTGCGCC,0.0369
3,ATGGAACC,-0.143
4,ACGGGTCT,-0.148
5,AGGATTTC,0.0194
6,AAAATACA,0.0702
7,CGAATAGC,-0.00858
8,GAAGGGCA,-0.0405
9,CAGTCACC,-0.113
10,ACCTTGTG,-0.0071
11,ATAACAAA,0.303
12,AGACAGGG,-0.28
13,ACAACTTA,0.072
14,GTCCGTTA,-0.114
15,AAGATGCC,0.0416
16,CTCCAAAG,-0.104
17,AGGGGAAC,-0.359
18,ACTTTAGC,-0.0587
19,CCTACTCG,-0.171
20,CATAAACC,0.0467
21,AGGTATGG,-0.179
22,ATGTCTAC,-0.106

# — the supplement of paper PMC3334620
